From article PMC9917443 (eLife, 2023) come the findings set out here.

Assay [1] has as its target T1, GB1a/2 receptors (Homo sapiens, UniProt O75899+Q9UBS5). Briefly: BRET assay of G protein activation (Gαo-RLuc / Venus-Gγ2) in HEK293T cells. The assay is classed as cell-based. Also noted: Flag (N); expressed in transfected cells; host or cells: HEK293T cells stably expressing chimeric Gαqi. The following applies: for BRET change by peptide alone (in words): 1 or 10 μM peptide, no APP695; for BRET change by peptide with APP695 (in words): APP695 in cis or in trans, 1 or 10 μM; for GABA-induced BRET change in presence of peptide (in words): peptide and GABA at 1 or 10 μM. The method, then: We directly tested whether APP17 influences G protein activation by GBRs in transfected HEK293T cells. […] HEK293T cells were transiently transfected with Flag-GB1a, Flag-GB2, Gαo-RLuc, Gβ2, and Venus-Gγ2 plasmids with or without APP695. In order to ensure APP695 binding to GB1a/2 in trans a pool of HEK293T cells expressing APP695 was mixed with a pool of HEK293T cells expressing Flag-GB1a, Flag-GB2, Gαo-RLuc, Gβ2, and Venus-Gγ2. Transfected cells were seeded into 96-well microplates (Greiner Bio-One) at 100,000 cells/well. After 18 hr, cells were washed and coelenterazine h (5 µM, NanoLight Technologies, Prolume Ltd., Pinetop-Lakeside, AZ, USA) added for 5 min. […] BRET ratios were adjusted by subtracting the ratios obtained when RLuc fusion proteins were expressed alone. Each data point represents a technical quadruplicate.
A general note: Bioluminescence resonance energy transfer reports proximity on the nanometre scale.

For assay [2], the target named is purified recombinant SD1/2 protein. Briefly: ITC binding of peptides to purified recombinant SD1/2 protein. The conditions noted are these: for Kd: 25°C, 20 mM NaPi (pH 6.8), 50 mM NaCl, 0.5 mM EDTA. An excerpt: We purchased APP17 and scrambled sc-APP17 peptides from the same commercial provider as Rice and colleagues ([Rice et al., 2019]; Figure 1A). For displacement experiments, we additionally synthesized fluorescent APP17-TMR and sc-APP17-TMR peptides labeled with TAMRA (5 (6)-carboxytetramethylrhodamine; Figure 1A). […]. […] In all subsequent experiments, we used the commercial APP17 peptide validated for binding to recombinant SD1/2 protein and GB1a/2 receptors in HEK293T cells.
APP17 (Ac-[…]-NH2; [Rice et al., 2019]) and sc-APP17 (acetyl-[…]-amide) peptides were from Insight Biotechnology, London, England (>98% purity). ESI-LC-MS (Poroshell, 300 SB-C18, 2.1×75 mm, Agilent Technologies, Santa Clara, CA, USA) and RP-UPLC (Acquity, Waters Corporation, Milford, CT, USA) were used to confirm peptide mass and purity, respectively. ITC experiments were carried out in a microcalorimeter (Microcal ITC200, GE Healthcare, Chicago, IL, USA) at 25°C with a stirring speed of 600 rpm in a buffer containing 20 mM NaPi (pH 6.8), 50 mM NaCl, and 0.5 mM EDTA. For titration, APP17 or sc-APP17 (each 300 μM) were injected (first injection 0.5 μl, followed by 25 injections of 1.5 μl) into the sample cell containing purified recombinant SD1/2 protein (30 μM) ([Schwenk et al., 2016]). Control measurements of peptide versus buffer were subtracted from the peptide versus SD1/2 measurements. Data were analyzed with Microcal ITC200 Origin software, using a one-site binding model.

For assay [3], the target named is T1, GB1a/2 receptors. Briefly: SRE-luciferase accumulation assay (Gαqi/PLC) in HEK293T-Gαqi cells. The conditions noted are these: for Bottom (best-fit): Std. Error r35, 95% CI r41; for Top (best-fit): Std. Error r36, 95% CI r42.
In assay [4] the test system is GB2 protein levels at glutamatergic synapses. Description: GB2 immunofluorescence at vGluT1/PSD95 synapses of cultured hippocampal neurons. The conditions noted are these: 5 μM, 1 hr; DIV14. The assay is classed as cell-based, mouse. How it is done: It is conceivable that prolonged exposure of cultured hippocampal neurons to APP17 affects synaptic GBR levels, for example, by stabilizing GB1a/2 receptors at the cell surface or displacing APP from GB1a/2 receptors ([Hannan et al., 2012]; [Dinamarca et al., 2019]). […] The functional effects of APP17 previously observed in cultured neurons ([Rice et al., 2019]) are therefore not caused by altered GBR levels at synapses.
Cultured hippocampal neurons (DIV14) on glass coverslips were treated with 5 µM APP17 or sc-APP17 for 1 hr, fixed with PBS (Life Technologies) containing 4% PFA (Sigma) and 4% sucrose (Sigma) and permeabilized with PBS containing 0.2% Triton X-100 (Sigma) and 10% normal donkey serum (Abcam). Neurons were washed with PBS and blocked with PBS containing 10% normal donkey serum (Abcam). Primary guinea pig anti-GB2 (Synaptic Systems), rabbit anti-vGluT1 (Synaptic Systems), and mouse anti-PSD-95 (Synaptic Systems) antibodies were incubated for 2 hr at room temperature. For GBR quantification, we used a GB2 antibody because the available GB1a antibody may compete with APP17 for binding to SD1. […] The GB2 fluorescence in z-stacked (maximum intensity) images was quantified at these synapses. The average GB2 fluorescence at synapses for each image represents one data point in Figure 6B.

[5] abbreviates: Fig.5a, linear regression vs Log [Agonist] (M), 60 values, best-fit.
[6] abbreviates: GB1a/2, GABA curve with 1μM peptide, different curve for each data set.
Setting [7] is: GB1a/2, GABA curve with 10μM peptide, different curve for each data set.

“Also recorded” adds a separate entry of the source. Where only a bound is given, the exact number is not on record here.

T1 sequence (Q9UBS5 15-961 limits assumed): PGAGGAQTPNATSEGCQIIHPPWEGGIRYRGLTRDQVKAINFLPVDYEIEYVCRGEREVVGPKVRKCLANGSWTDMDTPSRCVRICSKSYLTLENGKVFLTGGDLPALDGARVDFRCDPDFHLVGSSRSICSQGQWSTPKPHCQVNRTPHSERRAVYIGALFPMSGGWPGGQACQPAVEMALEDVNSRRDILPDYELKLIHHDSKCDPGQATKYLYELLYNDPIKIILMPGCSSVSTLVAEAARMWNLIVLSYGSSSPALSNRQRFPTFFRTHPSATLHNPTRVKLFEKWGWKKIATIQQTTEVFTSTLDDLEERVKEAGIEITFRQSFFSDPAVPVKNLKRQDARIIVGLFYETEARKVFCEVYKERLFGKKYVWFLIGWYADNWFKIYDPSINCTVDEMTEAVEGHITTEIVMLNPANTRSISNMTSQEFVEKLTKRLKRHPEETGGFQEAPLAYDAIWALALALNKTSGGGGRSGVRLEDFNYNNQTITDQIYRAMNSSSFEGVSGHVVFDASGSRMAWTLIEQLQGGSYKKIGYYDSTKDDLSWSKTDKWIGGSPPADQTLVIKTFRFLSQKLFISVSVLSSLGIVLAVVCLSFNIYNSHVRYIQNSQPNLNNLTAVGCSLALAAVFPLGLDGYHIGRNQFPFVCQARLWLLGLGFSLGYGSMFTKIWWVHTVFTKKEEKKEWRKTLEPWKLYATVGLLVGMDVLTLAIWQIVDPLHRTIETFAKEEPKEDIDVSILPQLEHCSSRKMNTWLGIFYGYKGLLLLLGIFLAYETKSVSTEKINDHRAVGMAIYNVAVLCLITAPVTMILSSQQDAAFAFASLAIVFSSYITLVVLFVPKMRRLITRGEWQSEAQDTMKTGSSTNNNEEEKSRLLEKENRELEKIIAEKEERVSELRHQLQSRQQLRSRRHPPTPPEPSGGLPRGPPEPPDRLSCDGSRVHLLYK
T1 sequence (O75899 42-941 partner): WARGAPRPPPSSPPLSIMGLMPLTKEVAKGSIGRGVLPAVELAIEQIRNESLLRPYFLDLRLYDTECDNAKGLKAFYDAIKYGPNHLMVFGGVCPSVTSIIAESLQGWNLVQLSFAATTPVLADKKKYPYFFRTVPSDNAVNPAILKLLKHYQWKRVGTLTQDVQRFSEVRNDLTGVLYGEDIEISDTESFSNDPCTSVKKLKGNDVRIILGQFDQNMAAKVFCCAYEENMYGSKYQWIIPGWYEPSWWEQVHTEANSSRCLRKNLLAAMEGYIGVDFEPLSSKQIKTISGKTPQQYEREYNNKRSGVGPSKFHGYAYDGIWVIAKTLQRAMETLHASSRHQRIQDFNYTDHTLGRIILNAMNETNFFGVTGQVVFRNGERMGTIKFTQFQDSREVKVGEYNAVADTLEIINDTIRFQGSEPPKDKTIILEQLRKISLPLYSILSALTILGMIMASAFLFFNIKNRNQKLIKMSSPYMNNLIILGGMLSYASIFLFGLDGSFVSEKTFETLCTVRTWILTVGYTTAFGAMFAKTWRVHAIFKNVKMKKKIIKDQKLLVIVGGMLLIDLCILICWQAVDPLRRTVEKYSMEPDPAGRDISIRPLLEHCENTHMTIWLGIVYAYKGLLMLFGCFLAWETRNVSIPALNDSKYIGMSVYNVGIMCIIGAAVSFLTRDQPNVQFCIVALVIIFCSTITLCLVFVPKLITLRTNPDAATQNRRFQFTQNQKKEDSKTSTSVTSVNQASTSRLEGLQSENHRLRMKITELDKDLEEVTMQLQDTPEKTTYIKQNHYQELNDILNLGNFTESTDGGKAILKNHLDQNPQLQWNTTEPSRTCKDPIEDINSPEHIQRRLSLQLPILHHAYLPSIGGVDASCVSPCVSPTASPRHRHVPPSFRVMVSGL

The Kd is a measure of binding affinity in units of concentration. Turning to Ac-DDSDVWWGGADTDYADG-NH2 [APP17], on GB1a/2 receptors [1], the “BRET change by peptide alone (in words)” value was “did not significantly influence receptor activity”, the “BRET change by peptide with APP695 (in words)” value was “had no effect on GBR activity” and the “GABA-induced BRET change in presence of peptide (in words)” value is given as “GABA-induced BRET decreases were similar”. The Kd in assay [2] (SD1/2 30 μM, peptide 300 μM in syringe, one-site binding model) came to 543 nM. For the same substance, the “effect on constitutive receptor activity (in words)” value at GB1a/2 receptors [3] (1 and 10 μM) is “did not influence constitutive GB1a/2 receptor activity”. The “effect on GABA dose-response curve (in words)” value on GB1a/2 receptors [3] (1 h pre-incubation, 1 or 10 µM, absence or presence of APP695 in cis) was “did not significantly influence the GABA dose-response curve”. Moreover, on GB1a/2 receptors [3] (setting [5]), the “1/slope (linear regression of dose-response)” value is listed as 119.3, the “Slope (linear regression of dose-response)” value turned out to be 0.008385, the “X-intercept (linear regression of dose-response)” value is listed as -45.72 and the “Y-intercept (linear regression of dose-response)” value was 0.3833. In addition, on GB1a/2 receptors [3] (setting [6]), the “Bottom (best-fit)” value is recorded as 0.3131 and the “Top (best-fit)” value came out at 1.014. In addition, on GB1a/2 receptors [3] (setting [7]), the “Bottom (best-fit)” value worked out at 0.3136 and the “Top (best-fit)” value was found to be 0.9838. The “LogEC50 of GABA (best-fit)” value on GB1a/2 receptors [3] (GB1a/2, Log [GABA] (M), with 10μM peptide, different curve for each data set, Std. Error r37, 95% CI r43) is -6.42. For the same substance, the “agonistic effect on FLuc activity (in words)” value on GB1a/2 receptors [3] (up to 100 μM) is given as “lacked agonistic properties at concentrations up to 100 μM”. Besides, the “GB2 protein levels at glutamatergic synapses (in words)” value in assay [4] was “did not result in a significant difference in GB2 protein levels at glutamatergic synapses”.
With “Ac-DWGADTVSGDGYDAWDD-NH2 [sc-APP17, scrambled sc-APP17 peptide]”, on GB1a/2 receptors [1], the “BRET change by peptide alone (in words)” value is recorded as “did not significantly influence receptor activity”, the “BRET change by peptide with APP695 (in words)” value is given as “had no effect on GBR activity” and the “GABA-induced BRET change in presence of peptide (in words)” value is “GABA-induced BRET decreases were similar”. For the same substance, in assay [2], the “binding to SD1/2 (in words)” value was “no detectable binding to SD1/2; also recorded: no binding to SD1/2 protein”. In addition, the Kd in assay [2] (scrambled control) was greater than 300000 nM. Also, the “GB2 protein levels at glutamatergic synapses (in words)” value in assay [4] is “did not result in a significant difference in GB2 protein levels at glutamatergic synapses”.
